We go through 133 variants from the RNAGym collection of RNA variant scans (doi:10.1101/gad.245936.114).

Variants at the background level are over-represented here.

The labels stand for the following.
B1: tRNA (parent)
chain: CUCUCGGUAGCCAAGUUGGUUUAAGGCGCAAGACUUUAAUUUAUCACUACGAAAUCUUGAGAUCGGGCGUUCGACUCGCCCCCGGGAGAUUUUUUCCUCGAGCAA

The variants in this data set derive from B1. Nature of the data set: nonsense suppression (GFP-seq) (ratio to wild type); higher = more function; SUP4oc tRNA, yeast GFP reporter sort-seq. In outline: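 Each variant's nonsense suppression (GFPSEQ) is a cell-share-weighted bin median GFP/RFP relative to the unmutated parent tRNA. Yeast with genome-integrated tRNA variants from a ~3% random-mutation library, a galactose-driven GFP ochre reporter and RFP were grown in raffinose/galactose medium with 80 mg/L adenine, then sorted into GFP/RFP bins for Illumina sequencing. Variants needed ≥100 reads and ≥30 cells.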
As for U8G G25C C68U, the nonsense suppression was no more than 0.026.

As for C5U G69U U71A G85U, the nonsense suppression is no more than 0.026.

G26A G65A G86A: the nonsense suppression was no more than 0.026.

C29A G67U A87C: the nonsense suppression was no more than 0.026.

U16C C34U: the nonsense suppression is no more than 0.026.

In the case of G7C C11U U20A, the nonsense suppression is no more than 0.026.

On to A14G U76A G84A, for which the nonsense suppression is no more than 0.026.

On to G65U C80U, for which the nonsense suppression is no more than 0.026.

As for U20A A24U C27A A54C U71A, the nonsense suppression is no more than 0.026.

For the variant A13C C56A, the nonsense suppression is no more than 0.026.

Regarding U8C G18U U22A U35G U71A C80G, the nonsense suppression was no more than 0.026.

Turning to U21A G65C, the nonsense suppression was no more than 0.026.

G18C U71C: the nonsense suppression is no more than 0.026.

For the variant U20G G65C U71C, the nonsense suppression was no more than 0.026.

As for C64A C83G A87G, the nonsense suppression is no more than 0.026.

For U4G G6U G59U, the nonsense suppression is no more than 0.026.

C34A G61C A87U: the nonsense suppression was no more than 0.026.

As to C1U C72G, the nonsense suppression is no more than 0.026.

In the case of G28U U57A, the nonsense suppression is no more than 0.026.

For the variant A24U C72G, the nonsense suppression came to 0.03.

Take A14C G26C C77G G88A: the nonsense suppression is no more than 0.026.

U2C A9G U20C U55C G84U: the nonsense suppression was no more than 0.026.

Consider A30G U55G U63G C64A, for which the nonsense suppression is no more than 0.026.

Consider U35A G69A G84C A89G, for which the nonsense suppression is no more than 0.026.

In the case of C29U A89G, the nonsense suppression was no more than 0.026.

G6A U21G C64A G65A G67C: the nonsense suppression was no more than 0.026.

On to C5G U63A G86C, for which the nonsense suppression is no more than 0.026.

Turning to G28C U35C U58A, the nonsense suppression is no more than 0.026.

Regarding G19U C27U G66C G69C, the nonsense suppression is no more than 0.026.

Regarding C5A A31C C82U, the nonsense suppression was no more than 0.026.

Regarding A31G C56G, the nonsense suppression is no more than 0.026.

In the case of G67A C82G, the nonsense suppression was no more than 0.026.

For U55C U57C U63C, the nonsense suppression was no more than 0.026.

For U4A C12U U55G G61C, the nonsense suppression was no more than 0.026.

For C3U U35A C79G, the nonsense suppression is no more than 0.026.

Regarding C5A G66U G85A, the nonsense suppression was no more than 0.026.

On to A9G G59A U76A, for which the nonsense suppression was no more than 0.026.

For the variant A13C A62U G86A, the nonsense suppression was no more than 0.026.

For G15A C27U U63G, the nonsense suppression is no more than 0.026.

With A33G U55A C83G, the nonsense suppression was no more than 0.026.

In the case of A14U A31U C79U A89G, the nonsense suppression was no more than 0.026.

A31U A54G: the nonsense suppression is no more than 0.026.

In the case of C1U C3A, the nonsense suppression is no more than 0.026.

On to A60C C72G, for which the nonsense suppression was no more than 0.026.

As to C27U C64A, the nonsense suppression was no more than 0.026.

For U20G G26U G84C, the nonsense suppression was no more than 0.026.

Consider G7A A54C G67U, for which the nonsense suppression is no more than 0.026.

Consider G7U G25A C27U C29U, for which the nonsense suppression is no more than 0.026.

Take C5A C75A: the nonsense suppression is no more than 0.026.

On to G7A G65U, for which the nonsense suppression is no more than 0.026.

Consider U76G C81A, for which the nonsense suppression is no more than 0.026.

Consider G6U A23C C29G G73C, for which the nonsense suppression was no more than 0.026.

For the variant U17C A30G, the nonsense suppression was determined as 0.326.

Turning to C12A C56U G69C U70C, the nonsense suppression is no more than 0.026.

C1G G10U A54G C68A: the nonsense suppression was no more than 0.026.

For G18U G26A C27G U35G, the nonsense suppression is no more than 0.026.

Take A13U U21C A24C G66A A89G: the nonsense suppression is no more than 0.026.

In the case of U17C U55G, the nonsense suppression is no more than 0.026.

Take A62U U76G: the nonsense suppression is no more than 0.026.

As to U2G G7A G19A A62U C80U, the nonsense suppression is no more than 0.026.

Take U21G G61A: the nonsense suppression is 0.237.

Consider G32C U35A, for which the nonsense suppression was no more than 0.026.

Take U4A U58G C81G: the nonsense suppression was no more than 0.026.

C1U U16G G59A G84C: the nonsense suppression is no more than 0.026.

With U4G G15A U16G A23C G28C G73C G85U, the nonsense suppression was no more than 0.026.

A31G G66U C81G: the nonsense suppression was no more than 0.026.

As to C3U C75A U76A A89C, the nonsense suppression is no more than 0.026.

For the variant C3A G88U, the nonsense suppression was no more than 0.026.

U20C C83G G86A: the nonsense suppression was no more than 0.026.

For the variant G15C U22C U58G U70A, the nonsense suppression was no more than 0.026.

On to G10A G78U A89C, for which the nonsense suppression is no more than 0.026.

C68U U71G: the nonsense suppression was no more than 0.026.

With C12U C64U G69C C83U, the nonsense suppression was no more than 0.026.

C11G A23G U57C U76A: the nonsense suppression was no more than 0.026.

With U2C C68A C75A, the nonsense suppression was no more than 0.026.

Turning to C11A C81G G88U, the nonsense suppression is no more than 0.026.

For the variant U2A U8A G10U C29G U63C, the nonsense suppression was no more than 0.026.

Consider U8G G15C, for which the nonsense suppression was no more than 0.026.

C12U G26C: the nonsense suppression was no more than 0.026.

Consider C1G G6C G19C, for which the nonsense suppression is no more than 0.026.

As to C11G G15U C56G C64U, the nonsense suppression was no more than 0.026.

Turning to C3U U35G U58G G67A C75G, the nonsense suppression was no more than 0.026.

For the variant U22G G86U, the nonsense suppression is no more than 0.026.

In the case of C12A C81A, the nonsense suppression is no more than 0.026.

On to C34U U63C G85C, for which the nonsense suppression was no more than 0.026.

In the case of G10U C29A, the nonsense suppression was no more than 0.026.

For the variant C12A A14C U21G, the nonsense suppression is no more than 0.026.

As to C1U G59C C81A, the nonsense suppression is no more than 0.026.

On to U20A U76C, for which the nonsense suppression is 0.719.

In the case of C56G A62C A89C, the nonsense suppression was no more than 0.026.

For the variant U16A G26C C72U G88U, the nonsense suppression was no more than 0.026.

With A30C G32C G84C, the nonsense suppression is no more than 0.026.

As for G32A A62C, the nonsense suppression is no more than 0.026.

Take A14G G26C C29A: the nonsense suppression is no more than 0.026.

In the case of G32U A60U C81A, the nonsense suppression was no more than 0.026.

U20A G65C: the nonsense suppression was no more than 0.026.

As to U21G C83A G84U, the nonsense suppression was no more than 0.026.

Consider U4C U22C G86A, for which the nonsense suppression was found to be 1.16.

For the variant U55G U58A G88C, the nonsense suppression is no more than 0.026.

With G18C C56A G59A, the nonsense suppression is no more than 0.026.

Turning to C3A U8A A23C, the nonsense suppression is no more than 0.026.

With U17C G78C C82U, the nonsense suppression was no more than 0.026.

Take G26C C27G C34G A74C C79A G86U: the nonsense suppression is no more than 0.026.

Take G67A U70G U76G: the nonsense suppression is no more than 0.026.

In the case of C27U A30G G32A A33G G66C, the nonsense suppression was no more than 0.026.

Turning to A87U, the nonsense suppression is no more than 0.026.

Regarding A24C G65A, the nonsense suppression was 0.0366.

On to A33C C64U C72U C79A, for which the nonsense suppression was no more than 0.026.

As for U20G A33U, the nonsense suppression turned out to be 0.0902.

As to C12A U16G C27G C29A G32C, the nonsense suppression was no more than 0.026.

U8A A13C G67A: the nonsense suppression is no more than 0.026.

As to G15A C27U, the nonsense suppression is no more than 0.026.

As for U20G C27U G61A C83G, the nonsense suppression was no more than 0.026.

In the case of U8C G10C C64U G65A, the nonsense suppression is no more than 0.026.

As for U55G G69C, the nonsense suppression was no more than 0.026.

Take G32U U58A G59U G88C: the nonsense suppression was no more than 0.026.

Take C11A G18C G59C U70C C81G: the nonsense suppression is no more than 0.026.

Take C5G C11A: the nonsense suppression is no more than 0.026.

With U76G, the nonsense suppression is no more than 0.026.

Take U22G G66C: the nonsense suppression was no more than 0.026.

For the variant A14G G69A G86A, the nonsense suppression is no more than 0.026.

For the variant G15U A23G G73C C80A, the nonsense suppression was no more than 0.026.

Regarding G26C G69C, the nonsense suppression was no more than 0.026.

Take U2G A24U U70A C83A G88C: the nonsense suppression was no more than 0.026.

As for C3A C12A A33G G66C, the nonsense suppression was no more than 0.026.

As for C1U U4A, the nonsense suppression stood at 0.0473.

For C11U A33U G88A, the nonsense suppression was no more than 0.026.

Take A13G U58G G78C: the nonsense suppression was no more than 0.026.

Consider C3G C64U, for which the nonsense suppression was no more than 0.026.

As to G6A U17A G19C A23C G66A G86U, the nonsense suppression was no more than 0.026.

Turning to A60C U71G A74C C77U, the nonsense suppression is no more than 0.026.

With G10A C27G G32U C56U, the nonsense suppression was no more than 0.026.

For the variant C12U G73C, the nonsense suppression was no more than 0.026.
